45 sequences from the supplement of paper PMC11417369 can be followed below.

The list shows a part of the results.

The test system of the assay is PF3D7_0420300 AP2 domain 1 (GST-tagged). As to the kind of experiment: gcPBM binding intensity (ln(normalized median fluorescence intensity)); higher = stronger DNA binding. In outline:
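The binding buffer was 1× PBS containing 1% milk, 0.2 mg/ml BSA, 0.5% salmon testes DNA and 0.03% Triton X-100. In it, GST-tagged P. falciparum DNA-binding domains expressed in E. coli were applied for 1 h to an Agilent 4 × 180k array of primer-extended double-stranded 36-bp intergenic genomic probes plus negative controls. Binding intensity, read with Alexa488 anti-GST antibody and a 488 nm scan, is the highest Masliner-normalised natural-log median intensity across replicate spots of either probe orientation.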
Regarding “ATCAAAAAAAAAAAAAGTACACAAAATTTTTTATTA [XGTACX_site7986]”, the “gcPBM binding intensity (ln)” value amounted to 9.

For the sequence “TATATGTGTGTTATATGTACTTATATATATATATAT [XGTACX_site5570]”, the “gcPBM binding intensity (ln)” value turned out to be 9.48.

Turning to ATAATGAACAAAGTAGTGCACTTTCCTTATCTTTTC, the “gcPBM binding intensity (ln)” value is 9.22. “AAGGTTTAAAATTACTGTACAAATATAAATAAATAT [XGTACX_site3756]”: the “gcPBM binding intensity (ln)” value is 9.21. For “ACTAATATGTATATATATATATATATATATATATAT [CACACA_negctrl_site141]”, the “gcPBM binding intensity (ln)” value turned out to be 9. With “TACATATTTAAATACTGTACTCAAAAGAATTGTGCA [XGTACX_site2250]”, the “gcPBM binding intensity (ln)” value came out at 9.04.

As for “AAAATATAAAATAATGCACACATAAACAAAAAATCA [CACACA_site8382]”, the “gcPBM binding intensity (ln)” value turned out to be 9.75. Turning to “TAAAGTTAAAAATTATGTACATATATATTGTATATT [XGTACX_site5528]”, the “gcPBM binding intensity (ln)” value was 9.12. The result for “GATAAAATAGGACCATATTCTTTAAAACGATAAAAT [XGTACX_negctrl_site405]” reads 9.25; that for “ATATATATATATTTATGTACATATACATAATGTATA [XGTACX_site6387]”, 9.11. As to “TAAGAAGTATTTTCCTGTACATATTTTATATGTATG [XGTACX_site4658]”, the “gcPBM binding intensity (ln)” value worked out at 9.07. As for “TTATTTTATATATCACGTACATAGTTGTCTTCTTTT [XGTACX_site2906]”, the “gcPBM binding intensity (ln)” value is 9.38. For “ATGAATCCTTAATATGAACACACAAATATATTACAC [CACACA_site7943]”, the “gcPBM binding intensity (ln)” value was determined as 9.55. As for “TTATTTCAAAGTAAATCAGTAAATATTTGTTTTCTT [CACACA_negctrl_site1572]”, the “gcPBM binding intensity (ln)” value amounted to 9.02. As for “TTTTTTATTTATCCTATATATTACTAAATGAAGAAC [GTGCAC_negctrl_site333]”, the “gcPBM binding intensity (ln)” value worked out at 8.87.

Take “TCCTTATTTATATAATGTACTTTTTTTTTTCATTTT [XGTACX_site4275]”: the “gcPBM binding intensity (ln)” value is 9.22. For the sequence “TACAAGTATAAATAAGCACACATGTGGATATGTACA [CACACA_site4229]”, the “gcPBM binding intensity (ln)” value was determined as 9.58. Consider “TATATCTTATTTAACACACACAAAGAAAATAGAAAA [CACACA_site3732]”, for which the “gcPBM binding intensity (ln)” value turned out to be 9.77. Take “TCTTTAAATTTCTCAACACACAGTTATAAAAAATAA [CACACA_site2856]”: the “gcPBM binding intensity (ln)” value is 8.98. Regarding “AACAATAAAAATAATTGTACAAGTTTAAAAAAAATT [XGTACX_site1987]”, the “gcPBM binding intensity (ln)” value worked out at 9.23. The result for “ATATTTTTTTTTGTTAGTACTCATATTTGTAGTTTT [XGTACX_site7280]” reads 9.64.

Turning to “CATTTAAGACAAATTACACACGTATGCCAAATATAT [CACACA_site431]”, the “gcPBM binding intensity (ln)” value was 9.58. Take TTTTTAATTTCAATGGTGCAGTAATAATATAATAGT: the “gcPBM binding intensity (ln)” value worked out at 9.13. Regarding “AATATATATAATTATAGTACAGAAAATTAAAAAAGA [XGTACX_site2943]”, the “gcPBM binding intensity (ln)” value amounted to 9.43.

In the case of “TGTTCTATTCTATTATTATTTACAAATTATAAATAA [GTGCAC_negctrl_site232]”, the “gcPBM binding intensity (ln)” value is 9.2. The result for “ATATATTTATAATAGGTGCATATGTTTTATTTTTCC [GTGCAC_site9849]” reads 9.49.

In the case of “TATATATATTAGTGTGCACACTTTTTATTTTTATCC [CACACA_site8506]”, the “gcPBM binding intensity (ln)” value stood at 9.75. Next, “TGTAATAAATAGTACACACACACATATATATATATT [CACACA_site1388]”: 9.94. Take “AGATATGTTTTTAATTGTACATAAATACACAAATAT [XGTACX_site5981]”: the “gcPBM binding intensity (ln)” value is 9.12. Regarding AAAGAATTATATAAGGTGCACGAATGTTTCTTTAAT, the “gcPBM binding intensity (ln)” value was determined as 9.13. As for “AAAAAAAAAAAAAAAAAAAAAATACATATATATATA [CACACA_negctrl_site290]”, the “gcPBM binding intensity (ln)” value came out at 9.07. For “ATATGTGTGTGTATTTGTACCCAATTTTTATATATA [XGTACX_site4948]”, the “gcPBM binding intensity (ln)” value came to 10.1.

In the case of “TATAAATATATTTATACACACATTAGTGTATACATG [CACACA_site7397]”, the “gcPBM binding intensity (ln)” value worked out at 9.39. Turning to “AACTATAACTAAAAAAATCACATAAAATATTTTATT [TGCATGCA_negctrl_site363]”, the “gcPBM binding intensity (ln)” value came to 9.28.

Take “TCGTGTTAAATTTTTACACACAAACTTGCAATAATT [CACACA_site3824]”: the “gcPBM binding intensity (ln)” value is 9.51.

Take “AGGTGAAAAATATATAATAATGTAACAAAAAAAAAT [XGTACX_negctrl_site394]”: the “gcPBM binding intensity (ln)” value turned out to be 9.56. With “TTATGTTATAAATACACACACAAAAGAAAAAAAAAA [CACACA_site7414]”, the “gcPBM binding intensity (ln)” value was 9.86.

In the case of “TCCCATAATATTAGTAGTACTATTAATATTTTCAGG [XGTACX_site4925]”, the “gcPBM binding intensity (ln)” value was determined as 9.07.

For “TTCTCTATAAATGCTGCACACACATTTAATTATTTA [CACACA_site8828]”, the “gcPBM binding intensity (ln)” value was 9.69. Next, “ATTTCTTTTTTTTCTTGTACACATATTAAATTTATG [XGTACX_site734]”: 9.55. Turning to “TCTAAACAAATTAATAAAATAAGTATTCAAAATTAT [CACACA_negctrl_site731]”, the “gcPBM binding intensity (ln)” value came out at 8.98. “AATATTTATTTTTTTGCACACATATTTTACATTTTA [CACACA_site3182]”: the “gcPBM binding intensity (ln)” value is 9.82. Regarding “GTAAAATTTCGGATTTGTACACATGGCTATGAAAAA [XGTACX_site939]”, the “gcPBM binding intensity (ln)” value turned out to be 9.14. In the case of “AAAAAGCAGGATTATACACACAAATATTTATATGTT [CACACA_site6634]”, the “gcPBM binding intensity (ln)” value is 9.66. For “GCGTAGTTCGGAAGGGTGCTTTTTTGTTAATAAAAA [GTGCAC_site9592]”, the “gcPBM binding intensity (ln)” value turned out to be 8.98.
